{"source": "PubChem BioAssay AID1347120", "about": "(National Center for Advancing Translational Sciences (NCATS), 2019)", "note": "Out of some 390,000 compounds screened, about 930 (0.24%) were called active. The inconclusive results got no clear call from the source; some entries with a clear call stand among them for comparison. Calls come from the whole dose curve; as a rule, active = well fitted activation curve with a large enough effect; inconclusive = small, poorly fitted or top-dose-only effect; inactive = no such curve, though single readings can be large or run the other way. A potency beside an inconclusive call is a rough fit, not a confirmed value. Potency is the fitted concentration of half-maximal effect; tags give direction and shape of the fitted curve.", "data": [{"test": "qHTS for Suppressors of FUS Proteinopathy: Primary screen using FUS-linked yeast assay; note: nearly all actives have a fitted effect of over 55% in size;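 for growth rescue (activation): plate controls were DMSO vehicle for no effect and reference control for full effect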", "conditions": "S. cerevisiae FUS-expressing, OD600, 24 h; Potency: growth rescue; growth rescue (activation): at 76.6 µM (top of the series)", "procedure,_shortened": "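Galactose (2%) drives FUS expression in yeast precultured in raffinose; seeding density OD 0.005. Test compounds incubated 24hr at 30C and 99% humidity before absorbance at 600 nm was measured.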", "values": [{"smiles": "CCCOc1ccc(N2C(=O)C3ON(c4ccccc4)C(c4ccc(O)c(OC)c4)C3C2=O)cc1", "note": "(stereo not drawn)", "Potency": "inconclusive: 35.5 µM [activator, partial curve, poor fit]"}, {"smiles": "NC(=O)c1cccc(-c2cnc3c(Nc4cccc(OC(F)(F)C(F)F)c4)nccn23)c1", "growth rescue (activation)": "inactive: 33.9%"}, {"smiles": "Cc1nc(N2C(=O)c3oc4ccccc4c(=O)c3C2c2ccccc2F)sc1C", "note": "(stereo not drawn)", "growth rescue (activation)": "inactive: 7.9%"}, {"smiles": "Cc1ccc(Cl)c2c1N[C@@H](c1ccc(C(=O)O)cc1)[C@H]1CC=C[C@@H]21", "Potency": "inconclusive: 44.7 µM [activator, single point]"}, {"smiles": "N#Cc1ccsc1NC(=O)c1cnccn1", "growth rescue (activation)": "inconclusive: 67.6% [activator]"}, {"smiles": "COc1cccc(/C=C2\\CC3(OC(=O)c4ccco4)CCCN2C3)c1", "note": "(stereo not drawn)", "growth rescue (activation)": "inactive: -14.3%"}, {"smiles": "O=S1(=O)C=CCN1Cc1cn(Cc2cccc(Cl)c2)nn1", "growth rescue (activation)": "inactive: -26.2%"}, {"smiles": "CCOc1ccc(-c2nc(CSCC(=O)N3CCN(c4cccc(C(F)(F)F)c4)CC3)c(C)o2)cc1", "Potency": "active: 22.4 µM"}, {"smiles": "COCCN(CCOC)C(=O)c1cc2c(=O)n3ccccc3nc2s1", "growth rescue (activation)": "inconclusive: 50.8% [activator]"}, {"smiles": "O=C(CSc1nc2ccccc2c(=O)n1-c1ccccc1)N/N=C/C=C/c1ccccc1[N+](=O)[O-]", "Potency": "inconclusive: 28.2 µM [activator, single point]"}, {"smiles": "COc1ccc(NC(=O)CSc2cn(CC(=O)N3CCOCC3)c3ccccc23)cc1OC", "growth rescue (activation)": "inactive: 4.42%"}, {"smiles": "Cc1ccc(-c2nn(-c3ccccc3)cc2C(=O)Nc2ccc(C)c(S(=O)(=O)N3CCOCC3)c2)cc1", "Potency": "inconclusive: 10 µM [activator, full curve]"}, {"smiles": "CCOc1ccc(CCN2C(=S)N([C@@H](Cc3ccc(O)cc3)CN3CCCC3CN3C(=S)NC[C@@H]3Cc3ccc(O)cc3)C[C@@H]2CC(C)C)cc1", "note": "(stereo partly drawn)", "Potency": "inconclusive: 28.2 µM [activator, single point]"}, {"smiles": "COc1ccc(/C=N/NC(=S)SC)cc1OC", "growth rescue (activation)": "inactive: 21.8%"}, {"smiles": "O=C(COC(=O)Cc1ccccc1F)Nc1ccc(Cl)cn1", "growth rescue (activation)": "inactive: 19%"}, {"smiles": "COC(=O)[C@]12C[C@H](CC(=O)NCc3ccccc3)C(=O)N(Cc3cccc4ccccc34)C1=C[C@H](C(C)(C)C)O[C@@H]2C", "Potency": "inconclusive: 20 µM [activator, partial curve, poor fit]"}, {"smiles": "COc1ccccc1CNS(=O)(=O)c1cc(C(=O)Nc2cccc(C(F)(F)F)c2)ccc1F", "Potency": "inconclusive: 50.1 µM [activator, single point]"}, {"smiles": "COc1cccc(CNC(=O)c2ccc(CSc3nc4ccncc4n3Cc3cccc(C)c3)cc2)c1", "Potency": "inconclusive: 11.2 µM [activator, partial curve]"}, {"smiles": "Cc1ccc(S(=O)(=O)Nc2ccc(-n3c(C)nc4ccccc4c3=O)cc2)cc1", "Potency": "inconclusive: 50.1 µM [activator, single point]"}, {"smiles": "CCOc1ccc(Nc2nnc(Cc3ccc(OC)cc3)c(=O)[nH]2)cc1", "growth rescue (activation)": "inactive: 3.15%"}, {"smiles": "CCN(c1ccccc1)c1cc(C)nc2ncnn12", "growth rescue (activation)": "inactive: 5.21%"}, {"smiles": "COc1ccc(N2CCN(C(=O)c3cccc(N4C(=O)C5CC=CC(C)C5C4=O)c3)CC2)cc1", "note": "(stereo not drawn)", "Potency": "inconclusive: 35.5 µM [activator, partial curve, poor fit]"}, {"smiles": "O=C(Nc1ccc2nc(SCC(=O)N3CCCc4ccccc43)sc2c1)c1cccc(F)c1", "Potency": "inconclusive: 17.8 µM [activator, partial curve, poor fit]"}, {"smiles": "CC(C)[C@H](NS(=O)(=O)c1ccccc1)C(=O)OCC(=O)N1N=C(c2ccc(Cl)cc2)CC1c1ccco1", "note": "(stereo partly drawn)", "Potency": "inconclusive: 35.5 µM [activator, single point]"}, {"smiles": "CCCCN(C(=O)CSc1nc(CCC)cc(=O)[nH]1)c1c(N)n(Cc2ccccc2)c(=O)[nH]c1=O", "Potency": "inconclusive: 31.6 µM [activator, single point]"}, {"smiles": "O=C(Nc1ccc2nc(-c3ccc4nc[nH]c4c3)[nH]c2c1)c1cccs1", "Potency": "inconclusive: 31.6 µM [activator, partial curve, poor fit]"}, {"smiles": "COc1ccc(-c2nn(-c3ccccc3)cc2CN(C)CCn2ccnc2C)c(F)c1", "growth rescue (activation)": "inactive: -10.7%"}, {"smiles": "Cc1cccc(C(=O)N=c2c(C#N)cc3c(=O)n4cccc(C)c4nc3n2Cc2ccco2)c1", "Potency": "inconclusive: 22.4 µM [activator, partial curve]"}, {"smiles": "Cc1ccc(NC(=O)c2ncn(CCCN(CCCn3cnc(C(=O)Nc4ccc(C)c(C)c4)n3)Cc3ccc4[nH]ccc4c3)n2)cc1C", "Potency": "inconclusive: 28.2 µM [activator, single point]"}, {"smiles": "COc1cc(CC(=O)OCC(=O)Nc2cc(S(=O)(=O)N3CCCC3)ccc2Cl)cc(OC)c1OC", "Potency": "inconclusive: 50.1 µM [activator, single point]"}, {"smiles": "O=C(COC(=O)C1CCC1)NCc1ccc(F)cc1", "growth rescue (activation)": "inactive: 2.2%"}, {"smiles": "O=C(Nc1cccs1)Nc1cc(C(F)(F)F)ccc1Cl", "growth rescue (activation)": "inactive: 6.81%"}, {"smiles": "Cc1ccc(Cl)cc1N1CCN(C(=O)c2cnc(N3CCOCC3)c3ccccc23)CC1", "Potency": "active: 15.8 µM"}, {"smiles": "Cc1ccc(C)c(-c2ccc(=O)n(Cc3cccc(Br)c3)n2)c1", "growth rescue (activation)": "inactive: 44%"}, {"smiles": "CCOc1ccc(-n2c(Cc3ccccc3)nnc2SCc2nc(-c3ccccc3OC)no2)cc1", "Potency": "inconclusive: 20 µM [activator, single point]"}, {"smiles": "COc1ccc(Oc2c(-c3cccs3)cnn(-c3ccc(C)cc3)c2=O)cc1", "growth rescue (activation)": "inactive: 7.98%"}, {"smiles": "O=C1CN(C(=O)CSc2nc3c(cnn3-c3ccccc3)c(=O)[nH]2)c2ccccc2N1", "Potency": "inconclusive: 8.91 µM [activator, partial curve]"}, {"smiles": "CCOC(=O)C1CCCN(c2nc(C)nc3c2oc2ccccc23)C1", "note": "(stereo not drawn)", "growth rescue (activation)": "inactive: 33.5%"}, {"smiles": "COC(=O)[C@]12C[C@H](CC(=O)NCCCCc3ccccc3)C(=O)N(Cc3ccco3)C1=C[C@H](COCc1ccccc1)O[C@@H]2C", "Potency": "inconclusive: 35.5 µM [activator, single point]"}, {"smiles": "O=C(c1ccc(C(F)(F)F)cc1)N1CCC(=O)N(C(COCc2ccc(Cl)cc2)Cc2ccccc2)CC1", "note": "(stereo not drawn)", "Potency": "inconclusive: 14.1 µM [activator, partial curve, poor fit]"}, {"smiles": "COc1ccccc1[C@@H]1C(c2ccccc2)=NN(c2ccccc2)[C@H]1C(=O)N1CCOC1=O", "Potency": "inconclusive: 8.91 µM [activator, full curve, poor fit]"}, {"smiles": "CC1=CC(C)(C)Nc2ccc(OC(=O)CCN3C(=O)c4ccccc4C3=O)cc21", "Potency": "inconclusive: 14.1 µM [activator, partial curve]"}, {"smiles": "CCC1=Nc2cc(C(=O)NCC3CCCO3)ccc2Sc2ccc(Br)cc21", "note": "(stereo not drawn)", "Potency": "inconclusive: 25.1 µM [activator, single point]"}, {"smiles": "CC(C)Cn1cnc2c1c(=O)n(CC(O)c1ccccc1)c(=O)n2CC(C)C", "note": "(stereo not drawn)", "Potency": "inconclusive: 44.7 µM [activator, partial curve, poor fit]"}, {"smiles": "COc1ccc(-c2cc(C(=O)Nc3ccc(O)cc3)c3ccccc3n2)cc1OC", "growth rescue (activation)": "inactive: 22.4%"}, {"smiles": "COc1ccc(C2=CC(c3ccc(F)cc3)n3ncc(C(=O)Nc4ccc(C)cc4)c3N2)cc1", "note": "(stereo not drawn)", "growth rescue (activation)": "inactive: 13.9%"}, {"smiles": "Cc1ccc(OCC(=O)Nc2ccc(S(=O)(=O)Nc3cc(C)nc(C)n3)cc2)c(Br)c1", "growth rescue (activation)": "inactive: 33.1%"}, {"smiles": "CC1CCN(C(=O)COC(=O)c2ccccc2NC(=O)c2ccco2)CC1", "Potency": "inconclusive: 50.1 µM [activator, single point]"}, {"smiles": "CC(=O)Nc1ccc2nc(C3CC3)n(Cc3ccc(Cl)cc3)c(=O)c2c1", "growth rescue (activation)": "inactive: -31.5%"}, {"smiles": "O=C(c1ccccc1)n1ccc(-c2cnc(-c3ccccc3)s2)n1", "growth rescue (activation)": "inactive: -15.2%"}, {"smiles": "CC(=O)c1ccc(S(=O)(=O)Nc2ccc(-c3cn4c(n3)SCC4)cc2)cc1", "Potency": "inconclusive: 35.5 µM [activator, partial curve, poor fit]"}, {"smiles": "COc1ccc(CCNS(=O)(=O)c2ccc(Br)s2)cc1", "growth rescue (activation)": "inactive: -4.85%"}, {"smiles": "Cc1ccc(S(=O)(=O)c2c(N)n(NC(=O)c3ccccc3C)c3nc4ccccc4nc23)cc1", "Potency": "inconclusive: 35.5 µM [activator, partial curve, poor fit]"}, {"smiles": "COc1ccc(CCN2C(=O)C(Oc3ccccc3C)C2c2ccc3c(c2)OCO3)cc1OC", "note": "(stereo not drawn)", "growth rescue (activation)": "inactive: 7.88%"}, {"smiles": "CCOc1ccc(C(=O)CSCC(=O)O)cc1", "growth rescue (activation)": "inactive: -31.3%"}, {"smiles": "CC(=O)NC(Cc1c[nH]c2ccccc12)C(=O)OCC(=O)N1CCN(S(=O)(=O)c2ccc(Cl)cc2)CC1", "note": "(stereo not drawn)", "Potency": "inconclusive: 28.2 µM [activator, single point]"}, {"smiles": "COCCn1c(C)cc(C(=O)CSc2nnc(-c3cccnc3)n2-c2ccccc2F)c1C", "Potency": "active: 20 µM"}, {"smiles": "COc1ccc(NC(=O)N2CCC(N(C)CCC(C)C)CC2)cc1OC", "growth rescue (activation)": "inactive: -7.3%"}, {"smiles": "CCOC(=O)CSc1ccc(S(=O)(=O)N(C)C2CCCCC2)cc1[N+](=O)[O-]", "growth rescue (activation)": "inactive: 9.57%"}, {"smiles": "COc1ccc(NC(=S)N2CCN(c3ccc4c(c3)C3CCN(C(=O)OCc5ccccc5)C4C3)CC2)c(OC)c1", "note": "(stereo not drawn)", "Potency": "inconclusive: 11.2 µM [activator, single point]"}, {"smiles": "Clc1cccc(N2CCN(c3ncnc4c3nc3n4CCCCC3)CC2)c1", "Potency": "inconclusive: 28.2 µM [activator, single point]"}, {"smiles": "COc1ccc(OCCCC(=O)Nc2cc([N+](=O)[O-])ccc2C)cc1", "growth rescue (activation)": "inactive: 25.2%"}, {"smiles": "Cc1onc(-c2ccccc2Cl)c1C(=O)Nc1ccc(-c2nnc3n2CCCCC3)cc1", "Potency": "inconclusive: 14.1 µM [activator, partial curve, poor fit]"}, {"smiles": "COC(=O)c1sccc1S(=O)(=O)N1CCN(c2ccccc2)CC1", "growth rescue (activation)": "inactive: 37%"}, {"smiles": "Fc1ccc2[nH]c3c(Cl)ncnc3c2c1", "growth rescue (activation)": "inactive: -44.4%"}, {"smiles": "CC(C)C[C@H]1CNC(=S)N1C[C@H]1CCCN1C[C@H](Cc1ccccc1)N1C[C@H](CC(C)C)N(CCc2ccccc2)C1=S", "Potency": "active: 25.1 µM"}, {"smiles": "Cc1cc(C)c(Nc2nn3c(=O)c4cc5c(cc4nc3s2)OCO5)c(C)c1", "growth rescue (activation)": "inactive: 9.41%"}, {"smiles": "CCOC(=O)c1cc(NC(=O)COc2ccc([N+](=O)[O-])cc2)cc(C(=O)OCC)c1", "Potency": "inconclusive: 0.794 µM [activator, full curve, poor fit]"}]}]}
